The list shows a part of the results.

This assay addresses T1, OsWOX13 (Oryza sativa, UniProt Q5QMM3 1-267).
T1 sequence: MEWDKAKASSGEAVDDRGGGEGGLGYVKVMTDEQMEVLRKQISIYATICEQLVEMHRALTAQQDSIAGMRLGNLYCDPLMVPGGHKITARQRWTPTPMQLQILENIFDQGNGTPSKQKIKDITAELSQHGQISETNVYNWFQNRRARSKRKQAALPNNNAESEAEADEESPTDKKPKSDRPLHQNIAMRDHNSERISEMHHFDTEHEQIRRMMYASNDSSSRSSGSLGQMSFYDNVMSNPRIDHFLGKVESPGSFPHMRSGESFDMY
Nature of the assay: protein-binding microarray (RPBM); PBS, 2% BSA, 51.3 ng/ul salmon testes DNA, 50 uM zinc acetate, 200 nM TF, 25 C, 1 h; high values mean tight binding. The following applies: protein: recombinant; tags: N-terminal polyhistidine and DsRed monomer fusion (pET32a); label: CyDye5-dUTP incorporated in the synthesized complementary strand; 3' TTTTT single-stranded linker to array surface; dsDNA, one strand shown. The procedure, abridged: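 Transcription factors were each fused at the N-terminus to a polyhistidine tag plus DsRed and expressed in E. coli BL21-CodonPlus before Ni–NTA purification. Binding to a double-stranded custom Agilent array was carried out with 200 nM protein at 25 °C for 1 h in PBS, 2% BSA, salmon testes DNA and 50 µM zinc acetate. The binding signal is per-feature fluorescence intensity, in arbitrary units, on an Axon 4000B scanner.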
For “CCGCACATTAATTGTGATTGTGTGGACATTCTCAATTCTGCGGAGTCACCTAGTGCAG”, the binding signal was 21700 fluorescence intensity (a.u.).
Consider “CAAAATTAAAAGTTTGACTAAAATTGAAAGTTTGATGAAACGGAGTCACCTAGTGCAG”, for which the binding signal is 9270 fluorescence intensity (a.u.).
The value for “AATCTTGTAATAGATTTAACGATTTAAAATTATGTGAAACCGGAGTCACCTAGTGCAG” was 8900 fluorescence intensity (a.u.); that for “GCTGACTAACTAATTGTAGAGGATTGGGTAGGTTTGATTTCGGAGTCACCTAGTGCAG” was 31900 fluorescence intensity (a.u.); that for “TGGGACAGATTGAGATAGTTGAGGATTCGTAGCCCGGCGGCGGAGTCACCTAGTGCAG” was 18100 fluorescence intensity (a.u.).
The result for “TACAAATTGATTGGCTATAGGTCAAATAGTGGATCCTAGACGGAGTCACCTAGTGCAG” reads 56000 fluorescence intensity (a.u.).
The value for “TTCCTAATCTGTTTCCATTTTCTGCTTAGGAATTTATAGGCGGAGTCACCTAGTGCAG” was 3270 fluorescence intensity (a.u.); that for “CGCTCAGATTGATTTCATTTTAAATCATAACATTATTCAGCGGAGTCACCTAGTGCAG” was 47000 fluorescence intensity (a.u.).
Consider “AACAGCAATTTACTGAGATTATTATTGCCACGAGCTCTACCGGAGTCACCTAGTGCAG”, for which the binding signal is 6580 fluorescence intensity (a.u.).
The value for “ATCCCTATTCTAATTACAGGCAAGTCACAACATTATTATACGGAGTCACCTAGTGCAG” was 3480 fluorescence intensity (a.u.); that for “CTGCGATTGATTCGGCCTCTGAAAATCGATCATGGAATTCCGGAGTCACCTAGTGCAG” was 16500 fluorescence intensity (a.u.).
The result for “TTAATTAGAACTTGGTGTTGAACGTACTACCTGATGATCTCGGAGTCACCTAGTGCAG” reads 6400 fluorescence intensity (a.u.); that for “TACCTGTAAATCATTTTCATTACTGTTGTGGGGATGCTCACGGAGTCACCTAGTGCAG”, 3230 fluorescence intensity (a.u.).
With “TCTTGATAGAGATTTTGACTGATGATTAGGTAGTAGTGAGCGGAGTCACCTAGTGCAG”, the binding signal is 48100 fluorescence intensity (a.u.).
The result for “CCTGATGATCAACCAGCATAAAGGAGAGGCTTCTGGTTGGCGGAGTCACCTAGTGCAG” reads 5310 fluorescence intensity (a.u.); that for “TAAATTTTAAGTTATTTATTTATTATGTGGTAATAGCTCACGGAGTCACCTAGTGCAG”, 3350 fluorescence intensity (a.u.).
The value for “GCGATGGGAGGTGGGCGACGCGAGGGAGAGGGGAGAGGGGCGGAGTCACCTAGTGCAG” was 6590 fluorescence intensity (a.u.); that for “ATCAATAATCATATCGTCGTCTTCTCTGGGAGACCCGGAGCGGAGTCACCTAGTGCAG” was 3950 fluorescence intensity (a.u.); that for “CTCTTAGCCGCAATAAATAATTACATCAATTTCAGAGTAACGGAGTCACCTAGTGCAG” was 3280 fluorescence intensity (a.u.).
Consider “GGTCATAATTTAGCTCAATCTGCTGTTTGGTTCATTGGTTCGGAGTCACCTAGTGCAG”, for which the binding signal is 17100 fluorescence intensity (a.u.).
The result for “GCCAATCAGTTAAGCCTGACATATTAATATTTAAGGGGTTCGGAGTCACCTAGTGCAG” reads 26000 fluorescence intensity (a.u.); that for “ACCTCAATCTTATCCAAAACGATAATTAGTATAGAACCAGCGGAGTCACCTAGTGCAG”, 6880 fluorescence intensity (a.u.).
The result for “AAAACTAATGTTATGATAATGATTATAGTTATTTTATAAGCGGAGTCACCTAGTGCAG” reads 4590 fluorescence intensity (a.u.).
The value for “AAATATTGATATAACTATATGATTTTGTTAATGACATGTTCGGAGTCACCTAGTGCAG” was 14900 fluorescence intensity (a.u.); that for “AATTTGATTTCCTCTTCTTTTGTTGCTTAATTTCAGTCTCCGGAGTCACCTAGTGCAG” was 5580 fluorescence intensity (a.u.); that for “TTTTCAACAATCAATTTTATATATTAGAATACGTTTATAACGGAGTCACCTAGTGCAG” was 4000 fluorescence intensity (a.u.).
As to “CAAGTTTAATTTGAAAAGTTTCAGATTAAATTTTGAGTATCGGAGTCACCTAGTGCAG”, the binding signal was 10100 fluorescence intensity (a.u.).
For “GCAGGAAGTAATTTTCCCATCAAATTTACTTGGGTTTGAGCGGAGTCACCTAGTGCAG”, the binding signal was 4350 fluorescence intensity (a.u.).
The value for “GTTAATTAATTTCATACTCGCTATATTATTGGTCCTTCCTCGGAGTCACCTAGTGCAG” was 41100 fluorescence intensity (a.u.).
For “CAATGATTGTTATGTAACTAGGGTATGCAGCTGTAGTATACGGAGTCACCTAGTGCAG”, the binding signal was 40400 fluorescence intensity (a.u.).
In the case of “CTAAAATTAGCAAAGACTCGCAGCGTAAAGACGCCATGCCCGGAGTCACCTAGTGCAG”, the binding signal is 5420 fluorescence intensity (a.u.).
With “TCCTTGACATACAAGTTTAAAACTTAACCCGAGTCTTCTCCGGAGTCACCTAGTGCAG”, the binding signal is 8970 fluorescence intensity (a.u.).
The result for “TTTGATTTGGTAAATTCCAAACTGCCGTATTTGAAACGGGCGGAGTCACCTAGTGCAG” reads 40800 fluorescence intensity (a.u.).
The value for “AACGAAATTGGCCCAGCACACGCCAAGCTCAAGCAGGCCACGGAGTCACCTAGTGCAG” was 4580 fluorescence intensity (a.u.).
“TCTTTGATGTTTCACGCATGATAGATAAATGTGTTTCAACCGGAGTCACCTAGTGCAG”: the binding signal is 3240 fluorescence intensity (a.u.).
Take “CAGGATTGAAATACCCTAACACATTAAATTATATTCCCTCCGGAGTCACCTAGTGCAG”: the binding signal was 33700 fluorescence intensity (a.u.).
As for “ACTATTGATGTTAATGATTCGATAGTTCAATTATTTTATCCGGAGTCACCTAGTGCAG”, the binding signal is 8140 fluorescence intensity (a.u.).
On to “ATAAACCCTGATTAAAACCAGACAAATTGCTGGACTCGGCCGGAGTCACCTAGTGCAG”, for which the binding signal was 7960 fluorescence intensity (a.u.).
On to “CTCTCAATTCAAATCACCCACGTCAACAGAAGTAATCAGCCGGAGTCACCTAGTGCAG”, for which the binding signal was 4570 fluorescence intensity (a.u.).
On to “TATATTGATGGAAGTATTATATATCATTAATATCTTTAGCCGGAGTCACCTAGTGCAG”, for which the binding signal is 24000 fluorescence intensity (a.u.).
Consider “TATGATAAATTTAGTGTTAATTCTATAGTTTTGTGATACACGGAGTCACCTAGTGCAG”, for which the binding signal is 23400 fluorescence intensity (a.u.).
Consider “GTATAAACTGAATGTTGTTGATCTTGGTTAGGTGGAAGGCCGGAGTCACCTAGTGCAG”, for which the binding signal was 9240 fluorescence intensity (a.u.).
With “AGATAAATCAAAATTCAACATGTAAACAAAGTTGGAGAACCGGAGTCACCTAGTGCAG”, the binding signal is 4590 fluorescence intensity (a.u.).
The result for “AGCACGATATATAGATTGAACTGCTAGTTGCCTCGTGTTACGGAGTCACCTAGTGCAG” reads 6510 fluorescence intensity (a.u.).
The value for “TCTGCCAATTAAGCCAGTTGATTAGCTCACAAGGCAATCACGGAGTCACCTAGTGCAG” was 48800 fluorescence intensity (a.u.); that for “TTTATTAGAAAATAATTAATTTATGGATAAAACTTTTATACGGAGTCACCTAGTGCAG” was 5710 fluorescence intensity (a.u.); that for “TCGATTAATCACCGAGCTAATTAAGCTGAGAGCCCGAGATCGGAGTCACCTAGTGCAG” was 14000 fluorescence intensity (a.u.).
Consider “ATATATATATATATATATATATGTACACCACCAATTAATACGGAGTCACCTAGTGCAG”, for which the binding signal is 10700 fluorescence intensity (a.u.).
“GATGTTTGGACACTAATTTAGAGTATTAAACACAGACTACCGGAGTCACCTAGTGCAG”: the binding signal is 3740 fluorescence intensity (a.u.).
Turning to “TTCCTGATAGAGACCATACTTCTCAAAGTAAAATGTTATCCGGAGTCACCTAGTGCAG”, the binding signal is 8200 fluorescence intensity (a.u.).
As to “TAAAATTATTGGATATATGTCCAAAGTTAGGTCGTACAGTCGGAGTCACCTAGTGCAG”, the binding signal was 4950 fluorescence intensity (a.u.).
Turning to “GGGGATTGATTCTGGCACAGGCATATAATGCAGTAATATGCGGAGTCACCTAGTGCAG”, the binding signal is 44000 fluorescence intensity (a.u.).
The result for “AAGACAAATTGCTAACCTTTCTTTTCCATTAATGGAAGAGCGGAGTCACCTAGTGCAG” reads 10500 fluorescence intensity (a.u.).
For the sequence “GGTAATTCACGTTAACTGAAGAGGAGTTATTGAAACAAAACGGAGTCACCTAGTGCAG”, the binding signal is 13800 fluorescence intensity (a.u.).

Values taken from publication PMC7819943, “Rice protein-binding microarrays: a tool to detect cis-acting elements near promoter regions in rice”.
